Experimental findings from paper PMC4336329 (PLoS ONE, 2015) are described below.

The structures appear in SMILES notation. Screen size: about 310,000 compounds; about 14,000 (4.5%) showed an effect of 50% or more. The effect is printed as a negative number. The list shows a part of the results.
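Also: peak tail current of the secondary pulse compared with the same well before compound.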

Chain of human ether-à-go-go-related gene (hERG) potassium channel (Q12809 whole entry, looked up): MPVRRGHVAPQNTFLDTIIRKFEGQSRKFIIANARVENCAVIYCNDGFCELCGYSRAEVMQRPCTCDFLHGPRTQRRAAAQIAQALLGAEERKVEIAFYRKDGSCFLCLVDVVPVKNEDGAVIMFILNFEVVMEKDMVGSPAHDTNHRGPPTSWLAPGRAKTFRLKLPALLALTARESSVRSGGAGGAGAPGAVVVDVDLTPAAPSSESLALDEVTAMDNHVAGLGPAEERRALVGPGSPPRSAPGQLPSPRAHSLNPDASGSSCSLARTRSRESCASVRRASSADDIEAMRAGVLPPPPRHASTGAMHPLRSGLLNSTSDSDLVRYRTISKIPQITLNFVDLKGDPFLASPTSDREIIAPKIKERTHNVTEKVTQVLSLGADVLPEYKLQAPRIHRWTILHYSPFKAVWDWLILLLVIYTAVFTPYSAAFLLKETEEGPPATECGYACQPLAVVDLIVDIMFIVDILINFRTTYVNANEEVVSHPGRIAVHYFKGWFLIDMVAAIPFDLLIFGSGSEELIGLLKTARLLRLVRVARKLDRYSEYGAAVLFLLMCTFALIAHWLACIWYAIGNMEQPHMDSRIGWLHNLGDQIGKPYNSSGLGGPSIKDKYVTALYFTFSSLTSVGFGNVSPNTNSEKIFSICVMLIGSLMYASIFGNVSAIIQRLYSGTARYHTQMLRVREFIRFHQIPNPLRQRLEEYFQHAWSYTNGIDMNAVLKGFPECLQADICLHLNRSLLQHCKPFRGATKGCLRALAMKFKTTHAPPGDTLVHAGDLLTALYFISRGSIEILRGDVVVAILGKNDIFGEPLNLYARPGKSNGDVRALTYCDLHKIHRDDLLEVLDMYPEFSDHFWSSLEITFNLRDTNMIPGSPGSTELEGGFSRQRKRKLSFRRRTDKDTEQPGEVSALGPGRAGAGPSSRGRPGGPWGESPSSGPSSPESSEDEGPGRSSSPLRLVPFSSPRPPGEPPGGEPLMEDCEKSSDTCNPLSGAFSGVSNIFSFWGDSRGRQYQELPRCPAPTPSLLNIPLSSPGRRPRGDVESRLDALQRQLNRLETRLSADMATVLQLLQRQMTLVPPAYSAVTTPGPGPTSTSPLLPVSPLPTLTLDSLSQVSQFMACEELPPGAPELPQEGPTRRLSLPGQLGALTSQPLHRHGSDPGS

This assay concerns the target human ether-à-go-go-related gene (hERG) potassium channel (human, UniProt Q12809). As to the kind of experiment: primary screen, population patch clamp on CHO cells stably expressing hERG.
In the case of `CCOc1ccccc1NC(=O)Cn1c(=O)oc2cc(Cl)ccc21`, the “hERG current change (%, negative = inhibition) at 10uM” value is 21%. For `CCCCCNC(=O)C(C#N)c1nc2ccccc2nc1N1CCCC1` (centres unmarked) the value was 12.5%; for `Cc1cc(C(=O)Nc2c(C)nn(Cc3ccccc3)c2C)on1`, 1.26%.

In the case of `CCOc1cc(/C=N/NC(=O)Cc2ccc(C(F)(F)F)cc2[N+](=O)[O-])ccc1O`, the “hERG current change (%, negative = inhibition) at 10uM” value was -0.812%. `CCOC(=O)N1CCN(CC(O)COc2c(OC)cccc2OC)CC1.Cl` (centres unmarked): the “hERG current change (%, negative = inhibition) at 10uM” value was 2.85%. For `O=C(NC1CCCN(Cc2ccccc2F)C1)C1CCC1` (centres unmarked) the value was 13.6%; for `COc1cccc(NC(=O)CN(C)S(=O)(=O)c2ccc3c(c2)CCC(=O)N3)c1`, -29.9%; for `COc1ccccc1CNC(=O)C1CCC(CNS(=O)(=O)c2cccc3cccnc23)CC1` (centres unmarked), 19.7%. Then `CC1CCCN(CCCNC(=O)c2cc3c(s2)-c2ccccc2OC3)C1` (centres unmarked), with -76.4%; and `CC1CCCC(C)N1C(=O)Cn1c(SCC(=O)NCc2ccc3c(c2)OCO3)nc2ccccc21` (centres unmarked), with -46.4%. As for `COc1cc(C(=O)NCC2CCCO2)ccc1OCc1c(C)noc1C` (centres unmarked), the “hERG current change (%, negative = inhibition) at 10uM” value amounted to 10.7%. For `CCOC(=O)N1CCN(C(=O)c2cnc(Nc3ccccc3OC)c3ccccc23)CC1` the value was -26.7%; for `CC(NC(=O)c1cc2c(s1)CCCC2)C(C)(C)C` (centres unmarked), -7.13%. As for `C/C(CCc1ccco1)=N\NC(=O)CNc1c(Br)cc(Br)cc1Br`, the “hERG current change (%, negative = inhibition) at 10uM” value is 37.6%. As to `CN1CCc2c(C#N)c(N3CCCCC3)nc(NCc3ccccc3)c2C1`, the “hERG current change (%, negative = inhibition) at 10uM” value was -2.02%. Then `CCOC(=O)N1CCN(C(=O)CNC(=O)Cn2cnc3ccccc3c2=O)CC1`, with 16.5%. For the compound `Cc1ccc(C)c(C(=O)CSc2nnnn2-c2cccnc2)c1`, the “hERG current change (%, negative = inhibition) at 10uM” value was -15%. As for `COc1cccc(C(=O)NCCS(=O)(=O)NCCc2ccc(OC)c(OC)c2)c1`, the “hERG current change (%, negative = inhibition) at 10uM” value was -1.17%.

As for `CC1CCCC(NC(=O)COC(=O)Cc2c[nH]c3ccccc23)C1C` (centres unmarked), the “hERG current change (%, negative = inhibition) at 10uM” value is recorded as -14%. For `CC(C)(Cc1ccc(O)cc1)NC(=O)CC(=O)N/N=C/c1ccc(Cl)cc1` the value was 19.4%. `O=c1[nH]c2ccccc2nc1N1CCOCC1`: the “hERG current change (%, negative = inhibition) at 10uM” value was -7.18%. As for `COc1nc(NC2CCCCC2)nc(N2CCCCCC2)n1`, the “hERG current change (%, negative = inhibition) at 10uM” value was determined as 4.84%. Regarding `COc1cccc(CNC(=O)[C@H](C)NC(=O)C2CCN(S(=O)(=O)c3ccccc3)CC2)c1`, the “hERG current change (%, negative = inhibition) at 10uM” value was found to be 8.44%.

Consider `CC(=O)Nc1ccc(C(=O)NNC(=O)Cc2ccccc2)cc1`, for which the “hERG current change (%, negative = inhibition) at 10uM” value stood at 18.5%. In the case of `Cc1ccc(NC(=O)c2cc(-c3ccco3)on2)cc1`, the “hERG current change (%, negative = inhibition) at 10uM” value worked out at 4.51%. Regarding `C=CCn1c(N)cc(=O)nc1SCC(=O)Nc1ccccc1C(N)=O`, the “hERG current change (%, negative = inhibition) at 10uM” value is listed as 26.2%. Then `CCN(CC)CCn1c(SCC(=O)Nc2ccc(F)cc2)nc2c(sc3ccccc32)c1=O.Cl`, with -14.9%; and `CC1CCOC(c2coc3ccccc3c2=O)O1` (centres unmarked), with -0.768%. Then `O=C(CCNS(=O)(=O)c1ccccc1C(F)(F)F)NCCCSc1ccccc1`, with -18.1%. Take `CCOC(=O)c1ccc(CNC(=O)C(Cc2c[nH]c3ccccc23)NC(C)=O)o1` (centres unmarked): the “hERG current change (%, negative = inhibition) at 10uM” value was -1.24%. In the case of `CCC(C)NC(=O)c1oc2ccc(S(=O)(=O)N3CCC4(CC3)OCCO4)cc2c1C` (centres unmarked), the “hERG current change (%, negative = inhibition) at 10uM” value is recorded as -1.87%.

In the case of `O=C(O)c1ccc(N=Cc2c(O)ccc3oc4c(c23)CCCC4)cc1`, the “hERG current change (%, negative = inhibition) at 10uM” value was 1.8%.

With `CC(C)(C)c1cc(NS(=O)(=O)c2ccc3c(c2)OCCO3)on1`, the “hERG current change (%, negative = inhibition) at 10uM” value came to 10.9%. On to `CCOC(=O)CNC(=O)CSc1nc2cccnc2n1CC`, for which the “hERG current change (%, negative = inhibition) at 10uM” value was -7.04%. Then `CCc1cccc(NC(=O)C2CCCN(S(=O)(=O)c3ccc4[nH]c(=O)ccc4c3)C2)c1` (centres unmarked), with 8.32%; and `CN(Cc1cccs1)C(=O)C1CC(=O)N(Cc2ccccc2)C1` (centres unmarked), with -4.68%. Then `Cc1ccc2nc(SCC(=O)N(CC(C)C)c3c(N)n(Cc4ccccc4)c(=O)[nH]c3=O)[nH]c2c1`, with 11.2%. For `COc1cccc(OCC(O)CN2CCN(CCO)CC2)c1.Cl` (centres unmarked) the value was 15.7%; for `CCN(CC)c1ccc(O)c(C=Nc2ccc(C)c(C)c2)c1`, 7.46%. As for `CCc1ccc(C(=O)NNC(=O)c2cc(S(=O)(=O)N(C)C)ccc2N2CCCC2)cc1`, the “hERG current change (%, negative = inhibition) at 10uM” value worked out at 1.21%.

Take `CC1CN(C(=O)c2scc3c2OCCO3)CC(C)O1` (centres unmarked): the “hERG current change (%, negative = inhibition) at 10uM” value is reported as 13.9%. With `Cc1ccc(N(C(C)C(=O)Nc2ccc(S(=O)(=O)N3CCOCC3)cc2)S(C)(=O)=O)cc1` (centres unmarked), the “hERG current change (%, negative = inhibition) at 10uM” value was 7.56%.

In the case of `Cc1cc2oc(=O)cc(CN3CCOCC3)c2c(C)c1Cl`, the “hERG current change (%, negative = inhibition) at 10uM” value is -6.49%. As for `Cc1ccc(NS(=O)(=O)c2ccc3[nH]c(=O)oc3c2)cc1Cl`, the “hERG current change (%, negative = inhibition) at 10uM” value is given as -0.996%. For `CCNS(=O)(=O)c1ccc(CCC(=O)N2CCN(Cc3ccccc3)CC2)cc1` the value was -40.7%. For `OCCOCCn1c(C(CO)Nc2nc(-c3ccc(F)cc3)cs2)nc2ccccc21` (centres unmarked) the value was -29.4%.

On to `COc1ccc2oc(C(=O)N(C)CCOc3ccc(Cl)cc3)c(C)c2c1`, for which the “hERG current change (%, negative = inhibition) at 10uM” value is on record as -49.7%. On to `CCn1nc(C(=O)OCC(=O)Nc2nc(-c3ccc(OC)cc3)cs2)c2ccccc2c1=O`, for which the “hERG current change (%, negative = inhibition) at 10uM” value was 22.9%. For `CC(C)CC(=O)Nc1ncnc2c1C(=O)CC(C)(C)C2`, the “hERG current change (%, negative = inhibition) at 10uM” value was -0.157%.

For the compound `O=C(NCCCNC(=O)c1ccc(Cl)cc1Cl)c1ccccn1`, the “hERG current change (%, negative = inhibition) at 10uM” value is reported as -2.08%. For `COc1ccccc1-n1c(SCC(=O)c2ccc(O)cc2O)nc2cc([N+](=O)[O-])ccc21` the value was 11.4%; for `CCOC(=O)c1cncc(C(=O)O)c1`, 10.2%. For `Cc1ccc(S(=O)(=O)c2cc3ccccc3oc2=O)cc1` the value was 3.76%. Then `CCCn1c2ccc(C)cc2c2n[nH]c(=S)nc21`, with 12.5%; and `Cl.O=C(NCCCN1CCOCC1)c1c(O)c2ccccc2[nH]c1=O`, with -47.9%; and `COc1ccc(S(=O)(=O)Nc2ccc3cn[nH]c3c2)cc1[N+](=O)[O-]`, with -3.17%.
